In PubChem BioAssay AID651820 (National Center for Advancing Translational Sciences (NCATS), 2012):
The whole screen tested about 340,000 compounds, of which about 12,000 (3.5%) were called active. The inconclusive results got no clear call from the source; some entries with a clear call stand among them for comparison. Calls come from the whole dose curve; as a rule, active = well fitted inhibition curve with a large enough effect; inconclusive = small, poorly fitted or top-dose-only effect, or another doubt; inactive = no such curve, though single readings can be large or run the other way. No potency is given beside an inconclusive call; the fits are too rough.

Assay: qHTS Assay for Inhibitors of Hepatitis C Virus (HCV)
Settings: Huh7.5.1 HCVcc-Cre (HCVcc is cell-culture hepatitis C virus) infection, luciferase reporter, 44 h; series mostly up to 41.8 µM
Outline: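 HCVcc-Cre virus at an moi near 0.5 was added right after compound to cells cultured 4 h from seeding (1,000 cells/well). Luciferase activity was determined 44 h later, 15 min after substrate addition at RT.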
Potency is the fitted concentration of half-maximal effect; tags give direction and shape of the fitted curve.

Compound | Potency
COc1ccc(S(=O)(=O)Nc2cc(OC)c(NC(=O)c3ccco3)cc2OC)cc1 | inactive
CC(C)COc1ccc(-c2nn(-c3ccccc3)cc2CO)cc1 | inconclusive [inhibitor, partial curve]
COCCn1c(=S)[nH]c2cc(C(=O)NCCc3ccccc3)ccc2c1=O | inconclusive [inhibitor, partial curve]
CC1CCCCN1C(=O)CSc1nc2ccsc2c(=O)n1Cc1ccccn1 (centres undefined) | inactive
C[C@@H]1CN([C@@H](C)CO)C(=O)c2cc(NC(=O)CCC(F)(F)F)ccc2O[C@H]1CN(C)Cc1ccc(Cl)c(Cl)c1 | inactive
Clc1ccc(CSc2ncn(-c3ccccc3)n2)cc1 | inactive
O=C(N/N=C\c1ccc(Br)cc1)c1ccc(Cn2cccn2)o1 | inconclusive [inhibitor, single point]
N/C(=N\OC(=O)c1ccc2ccccc2c1)c1ccc(Br)cc1 | inactive
CN(C)CCCNC(=S)N(Cc1cccs1)Cc1cc2cc3c(cc2[nH]c1=O)OCCO3 | active: 2.51 µM
CCCCOc1ccc(C(=O)NCC(=O)NNC(=O)c2ccco2)cc1 | inactive
COc1ccc(-c2cccc([C@H]3[C@@H]4C=CC[C@@H](C)[C@@H]4C(=O)N3Cc3ccccc3)c2)cc1 | inconclusive [inhibitor, single point]
COc1ccc(NC(=O)c2ccc(COc3ccc(C)cc3)o2)cc1 | inconclusive [inhibitor, single point]
CN(Cc1ccccc1)C(=O)c1[nH]cnc1C(=O)NCc1ccc(CNC(=O)OC(C)(C)C)cc1 | inconclusive [inhibitor, partial curve]
Cc1cccc(C(=O)N2CCc3cc(-c4csc(NC(=O)CN5CCCC5)n4)ccc32)c1 | inconclusive [inhibitor, single point]
CCN(CC)C(=O)c1c(NC(=O)c2ccccc2)sc(C)c1C | inactive
CCOc1ccc2nc(N/C(N)=N/C(=S)Nc3cccc(OC)c3)nc(C)c2c1 | inconclusive [inhibitor, partial curve, poor fit]
COc1cc(/C=N/NC(=O)c2cccc3ccccc23)cc(OC)c1OC | inconclusive [inhibitor, partial curve]
Cn1c(=O)c2c(-c3ccccc3F)c3c(nc2n(C)c1=O)-c1ccccc1C3O (centres undefined) | inactive
Fc1ccc(NC(=S)N2CCCC(c3ccccc3)=N2)cc1 | inconclusive [inhibitor, single point]
COc1ccc(C(=O)c2sc3nc(-c4ccccc4)ccc3c2N)cc1OC | inconclusive [inhibitor, single point]
CCCOC(=O)c1ccc(NC(=O)c2c(Cl)ccc(Cl)c2OC)cc1 | inconclusive [inhibitor, full curve]
COc1ccc(/C=C/C(=O)NCCCc2ccccc2)cc1 | inactive
O=C(Oc1oc(-c2ccco2)nc1C=Nc1ccccc1)c1ccco1 | inactive

Compound | Potency
CCCCCn1c(=O)c(C(=O)Nc2ccccc2N)c(O)c2ccccc21 | inconclusive [inhibitor, full curve]
O=C(CCCCCN1C(=O)c2ccccc2C1=O)Nc1ccc(C(=O)O)cc1 | inactive
COc1ccc(/C=C/C(=O)Nc2ccc(C)cc2)cc1S(=O)(=O)N1CCOCC1 | inconclusive [inhibitor, partial curve]
CCOC(=O)C1CCCN(C(=S)Nc2ccc(Nc3ccccc3)cc2)C1 (centres undefined) | inconclusive [inhibitor, partial curve]
Cn1c(=O)c2c(nc(Oc3ccc4c(c3)OCO4)n2Cc2ccc(Br)cc2)n(C)c1=O | inconclusive [inhibitor, full curve]
COc1cccc(NC(=O)Nc2ccc3c(c2)CCC3)c1 | inconclusive [inhibitor, partial curve]
CC(C)c1ccc2c(c1)c(SC(C)(C)C)c(CC(C)(C)C(=O)O)n2Cc1ccc(Cl)cc1 | active: 10 µM
O=S(=O)(NCC1CCN(c2ccc(S(=O)(=O)N3CCOCC3)cc2)CC1)c1ccccc1 | inconclusive [inhibitor, single point]
O=C(CCNS(=O)(=O)c1ccccc1C(F)(F)F)Nc1ccncc1 | inactive
Cc1ccc(-c2nc(NC(=O)c3nn(C)cc3[N+](=O)[O-])sc2C)cc1 | active: 4.47 µM
Cc1nc([N+](=O)[O-])cn1Cc1cccc([N+](=O)[O-])c1 | inactive
COc1ccc(Cl)cc1NC(=O)CCN1CCN(C)CC1 | inconclusive [inhibitor, single point]
CSc1ncccc1C(=O)N1CCCC(N2CCN(c3ccccc3F)CC2)C1 (centres undefined) | inconclusive [inhibitor, single point]
COc1ccccc1Cn1c(=S)[nH]c2ccc(F)cc2c1=O | inactive
Cc1ccc2cc(C)c(SCC(=O)NCc3ccco3)nc2c1 | inconclusive [inhibitor, single point]
Cc1ccccc1OCC(=O)Nc1ccccc1N1CCCCC1 | inconclusive [inhibitor, single point]
CCOP(=O)(OCC)c1nc(-c2ccc(Cl)cc2Cl)oc1N1CCCCC1 | inconclusive [inhibitor, single point]
COc1ccccc1OCC(=O)Nc1ccc(-c2nnc(-c3ccco3)o2)cc1 | inconclusive [inhibitor, full curve, poor fit]
Nc1c(-c2ccc3c(c2)OCCO3)oc2ccccc2c1=O | inactive
Cc1ccc(C)c(Nc2c([N+](=O)[O-])cc(C(=O)N3CC(=O)Nc4ccccc43)cc2[N+](=O)[O-])c1 | inconclusive [inhibitor, single point]
COc1cc(NC(=O)COC(=O)CNC(=O)c2ccc(C)s2)cc(OC)c1 | inconclusive [inhibitor, single point]
CCN(CC)S(=O)(=O)c1ccc(-c2nnc(SCc3nnc(-c4ccc(C)cc4)o3)o2)cc1 | inactive
COc1cc(CCC(=O)OCC(=O)c2ccc[nH]2)cc(OC)c1OC | inactive

Compound | Potency
CCOc1ccc(C(C)=O)cc1COC(=O)C(C)N=C1NS(=O)(=O)c2ccccc21 (centres undefined) | inactive
CCn1c(C)nc2cc(S(=O)(=O)C(F)(F)C(F)C(F)(F)F)ccc21 (centres undefined) | inconclusive [inhibitor, partial curve]
Cc1cc(-c2ccc(C)c(S(=O)(=O)N3CCN(c4ccc(F)cc4)CC3)c2)on1 | inconclusive [inhibitor, partial curve, poor fit]
Cc1cc(C(=O)COC(=O)c2ccc3c(c2)OCO3)c(C)n1CC1CCCO1 (centres undefined) | inactive
O=C(Nc1nc2ccccc2s1)C1CC(=O)N(c2ccccc2)C1 (centres undefined) | inconclusive [inhibitor, single point]
O=S(=O)(/N=C(/Nc1cccc2ccccc12)c1ccc(F)cc1)c1ccccc1 | inconclusive [inhibitor, single point]
Cc1nn(C)c(C)c1/C=N/N=C1\CCC2C3CCc4cc(O)ccc4C3CCC12C (centres undefined) | inactive
O=C(CCn1c(=O)c2cccn2c2ccc(F)cc21)NCc1cccc(F)c1 | inconclusive [inhibitor, partial curve]
Cc1ccc(C)n1-n1c(C)nc2sc(-c3ccccc3)cc2c1=O | inconclusive [inhibitor, partial curve]
COc1ccc(N=C2SC(CC(=O)Nc3cccc(Cl)c3)C(=O)N2Cc2ccco2)cc1 (centres undefined) | inconclusive [inhibitor, single point]
Oc1ccccc1C=NNC(=S)Nc1ccc(F)cc1 | inconclusive [inhibitor, single point]
O=C(Cn1nc(-c2ccco2)ccc1=O)Nc1cc(Cl)ccc1Cl | inconclusive [inhibitor, partial curve]
CC(C)c1ccc(NC(=O)C(c2ccccc2)N2CCC3(CC2)OCCO3)cc1 (centres undefined) | inconclusive [inhibitor, single point]
CN1CCCCC1CCN1c2ccccc2Sc2ccc(S(C)=O)cc21 (centres undefined) | inconclusive [inhibitor, single point]
C=CCn1c(SCC(=O)Nc2nc(C)cs2)nnc1C(NC(=O)c1ccccc1)C(C)C (centres undefined) | inconclusive [inhibitor, partial curve, poor fit]
CC(/C=C/c1ccccc1)=N\Nc1nc(-c2ccccc2)cs1 | inconclusive [inhibitor, single point]
CCC(=O)NC(=S)Nc1ccc(NC(=O)c2cc3ccccc3o2)c(OC)c1 | inconclusive [inhibitor, partial curve]
CCOC(=O)c1cc(S(=O)(=O)N2CCc3ccccc32)cn1C | inconclusive [inhibitor, single point]
COc1ccc(NC(=O)c2cc(-c3cccnc3)nc3ccc(C)cc23)cc1OC | inconclusive [inhibitor, full curve, poor fit]
CN(C)S(=O)(=O)N1CCc2ccc(NC(=O)c3ccccc3Cl)cc2C1 | inconclusive [inhibitor, partial curve]
CN1C(=O)C(O)(CC(=O)c2cccc(-n3cccc3)c2)c2ccccc21 (centres undefined) | inactive
Cc1onc(-c2ccccc2)c1C(=O)O/N=C(\N)c1ccc([N+](=O)[O-])o1 | active: 11.2 µM
Cc1nn(-c2nc3ccccc3s2)c(C)c1Oc1ccccc1O | active: 10 µM
